Experimental data taken from the RNAGym collection of RNA variant scans (doi:10.7554/elife.90254).
The source gives no read counts; variants with many changes may rest on few reads.

B1: LINE1-full (parent)
chain: UACGUAGGUGGUUUUCCCCUGAUAGUGCUAAGGGGGCCUGGAAGUUUGGACUGGGCAGAGCUCAACACAGCGUGGCAAAGUGGCUGUGGCUAGACUGCCUCUCUGGAUUCCUCGUCACUCAGCAGGGCAUCUCUGAGAGAAAUGCC

Variants of: B1
Assay: self-cleavage, relative activity (ratio to wild type); higher = more cleavage; in vitro, sequencing; the parent is a self-cleaving ribozyme
U15C U20C G21U U143A showed a self-cleavage of 1. U15C U73C A77U showed a self-cleavage of 0.47. In the case of U15A C18U A65U C128U, the self-cleavage is reported as 0.16. U14C U87A G114U G126A A141G gave a self-cleavage of 0.1. U15C U29C U45C G72A showed a self-cleavage of 1.01. Work on U15C A77U G114C U132C yielded a self-cleavage of 1.66. Variant U15C U29C A117U G127U has a self-cleavage of 0.92. For U15A A22U U96A A142G, the self-cleavage was 0.05. U15C A121G A140G gave a self-cleavage of 1.31. U15A A94G A141G gave a self-cleavage of 0.06. Variant U14C U87C A121U has a self-cleavage of 0.48. For U15C G21A A42G, the self-cleavage was 1.36. With U15C A22G A140G the self-cleavage was 1.06. In the case of U14G U62C A69U U87A, the self-cleavage is reported as 0.15. U14C U130C A140G showed a self-cleavage of 1.21. In the case of U15C G49A G54A U108C U130C, the self-cleavage is reported as 0.45. U14C U81A G126A A141G gave a self-cleavage of 1.79. Variant U14G A78G A142G has a self-cleavage of 1.1. U15C A69C C76U U100A showed a self-cleavage of 0.02. With U15C U87C U96C G127A U130C U143C the self-cleavage was 0.16. Variant U15A A22C A57U A92G A141C has a self-cleavage of 0. In the case of U15C A42G C68U U87A, the self-cleavage is reported as 0.03. U15C A30U A121G gave a self-cleavage of 1.11. Variant U15A G21A U39C A78G has a self-cleavage of 0.55. U14C U96C U119C showed a self-cleavage of 0. In the case of U15C G40A G125U, the self-cleavage is reported as 1.8. U15C A31G U108A U132A showed a self-cleavage of 1.39. Work on U15C A31G A43G A64G yielded a self-cleavage of 0.84. Variant U15C U47G U87C C95U has a self-cleavage of 0. In the case of U15C A57G A64G, the self-cleavage is reported as 0.57. Variant U15C C63U A64G U100C A140G has a self-cleavage of 0. Variant U15C U96C A140G A142G has a self-cleavage of 0.13. In the case of U15A A79U U115C A129G, the self-cleavage is reported as 2.76. U15C A22U G36A G127U showed a self-cleavage of 0.91. With U14G U15C U26A A31U U45C C61U U62C A79G U134A the self-cleavage was 0. Work on U15A U119C A140G yielded a self-cleavage of 1.4. For U15A G32A A50G C61A, the self-cleavage was 0.11. U14C U73A U81C U85A A94G U102C showed a self-cleavage of 0. For U15C A57C A79G U85A U119A, the self-cleavage was 0.19. Work on U15C U96A U115C A141G yielded a self-cleavage of 0.24. U15A A64G A69U U100C showed a self-cleavage of 0.34. For U15A A30G A140G, the self-cleavage was 1.1. U15C A59G U102A U108C gave a self-cleavage of 0. Work on U15A A24U A94G yielded a self-cleavage of 0.37. U14C U104C A129U showed a self-cleavage of 2.51. Variant U15A G72U G93A U96A U115C has a self-cleavage of 0.03. Variant U14C U102C A117G has a self-cleavage of 1.58. U15C A42G U91A U108C U132C gave a self-cleavage of 0.71. With U14C U100C U143C the self-cleavage was 1.31. Work on U15C U96G A121C A141U U143A yielded a self-cleavage of 0. U15C C66U U119G U130C A142G showed a self-cleavage of 0. U15C A30G G49U A57G G80A U143C showed a self-cleavage of 0.96. U15C C28U A31G gave a self-cleavage of 0.76. U15A U52C G58A U132C gave a self-cleavage of 0.14. With U14C U87A C99U A136G A138G A140U the self-cleavage was 0.06. With U15C G34A A79G A107G G122A the self-cleavage was 2.22. For U14C U73C U85C U112C, the self-cleavage was 0. Work on U15C U20A A50G A57G C95U U96C yielded a self-cleavage of 0.34. For U15C A57G U96A A141G, the self-cleavage was 0.05. U15A A30U U96C gave a self-cleavage of 0.3. In the case of U14G A22G A77U, the self-cleavage is reported as 1.11. For U15C U96A A141U, the self-cleavage was 0.07. In the case of U15C A117G C128U, the self-cleavage is reported as 1.53. U14G U26A G35A U39C A69G U104A gave a self-cleavage of 0.25. In the case of U15A U62A A78U U91C, the self-cleavage is reported as 0.06. In the case of U14C U96C A142G, the self-cleavage is reported as 0.15. Variant U15C A129G A141G has a self-cleavage of 1.79. Variant U14C U100C A136G has a self-cleavage of 0.57. Work on U14C U115A A117G yielded a self-cleavage of 1.17. U15C A64G A136G gave a self-cleavage of 0.41. With U15C A43G A94G C113U A117G the self-cleavage was 0. Variant U14G U20C U26G U85A U100C has a self-cleavage of 0.34. Work on U15A A31G U104C yielded a self-cleavage of 0.57. U15C U46C U47C C113U gave a self-cleavage of 1.16. In the case of U15C A50U U85C A124U, the self-cleavage is reported as 0. U15C A50G U109C U119C gave a self-cleavage of 1.08. With U15C U39C A92G A141G the self-cleavage was 0. In the case of U15C U26A A141G, the self-cleavage is reported as 1.17. For U14C U62C U87A A140G, the self-cleavage was 0.05. For U15A U46C U52A, the self-cleavage was 0.81. For U15C A43G U62C, the self-cleavage was 0.2. For U15C C28G A117U, the self-cleavage was 1.17. In the case of U15C G21U A79G U134C, the self-cleavage is reported as 1.51. Work on U15C G58A U85C G93A A129U yielded a self-cleavage of 0.03. Variant U15C A77U U87A has a self-cleavage of 0.11. Variant U14C U85A U96C has a self-cleavage of 0.05. U15A U23C A43G U115A gave a self-cleavage of 0.57. U15C C61U U87A A117U showed a self-cleavage of 0.03. For U15C C101U A142G, the self-cleavage was 1.73. U15A A57G U85A gave a self-cleavage of 0.06. For U15C U47G U100A A136G, the self-cleavage was 1.2. In the case of U15C A50G G93U U108C A140G A141G, the self-cleavage is reported as 0. Variant U15C A50U U87C A138G has a self-cleavage of 0. For U15A U23C U62A G88A A117G A142G, the self-cleavage was 0. In the case of U15A U132C C146A, the self-cleavage is reported as 1.18. Variant U15C C51U A65G has a self-cleavage of 0.12. U15C U52C A69G U104A A129U U130C showed a self-cleavage of 0. Work on U15A G35A U73A yielded a self-cleavage of 1.18. U15C U26C A43G A92G showed a self-cleavage of 0. U15A A78C A79G showed a self-cleavage of 0.74. U14C U85C C110U gave a self-cleavage of 0.35. U15C U39C A117U A140G showed a self-cleavage of 1.84. Variant U15C U46C A78G has a self-cleavage of 1.65. For U15A C19U U85C U134C A140G, the self-cleavage was 0.61. U15C G82A U119A showed a self-cleavage of 1.93. Work on U15A G34U U47C A138U yielded a self-cleavage of 0.88. With U15C U39A A50G the self-cleavage was 1.12. For U15C G97A A138U, the self-cleavage was 0.08. With U15A A22G U26G C68U the self-cleavage was 0.44. Variant U15C A94U U104C U115C U132A has a self-cleavage of 0. For U15C A78G A79G U109C, the self-cleavage was 0. For U14C U104A A140G, the self-cleavage was 1.1. Work on U15C A43G A64G U73A A140G yielded a self-cleavage of 0. U15A U39C A65G U100C showed a self-cleavage of 0. In the case of U15C U45C A59G A78G U132C, the self-cleavage is reported as 0. Work on U15C A22G A121G A141G A142U yielded a self-cleavage of 1.84. Variant U15C G40U A43G U62C A117G has a self-cleavage of 0. With U15C U26G A77U the self-cleavage was 1.15. U15C U45A A59G A136G A140G showed a self-cleavage of 0.19. Variant U15C C123U A142G has a self-cleavage of 1.82. U15C A65G A117U showed a self-cleavage of 0. In the case of U14C U115C A124U U134A, the self-cleavage is reported as 1.55. U15A G40A U45C A117C showed a self-cleavage of 1.12. U15C A30G U73A showed a self-cleavage of 0. Work on U15C U20A U26A G32U U46C yielded a self-cleavage of 0.83. U15C A50G G89C gave a self-cleavage of 0. Variant U15C U45C G49A has a self-cleavage of 1.4. U15A U45G U85A U87A showed a self-cleavage of 0.09. Variant U15C A30C U45C has a self-cleavage of 2.23. U15C U87A C110A A142G showed a self-cleavage of 0.09. Work on U15C A64U C110G A140G A142G yielded a self-cleavage of 0.33. With U15A U39C C76U A94U U100A the self-cleavage was 0.19. Work on U15C C63U U96C A121G A142G yielded a self-cleavage of 0.06. In the case of U15C U96A U119C U143C, the self-cleavage is reported as 0.05. In the case of U15C U46A G83A C145U, the self-cleavage is reported as 0.54. Variant U15A U62C A138G has a self-cleavage of 0.67. Work on U15C A43U A65U A129G U134A yielded a self-cleavage of 0. U15C A67U A107G A140G gave a self-cleavage of 0.15. Variant U15C A22G G35A U45C U132C U134A has a self-cleavage of 0.38. U14C U73A A124G showed a self-cleavage of 1.13. Variant U15A C37G U134C has a self-cleavage of 1.48. U15C G70C U115C showed a self-cleavage of 0.31. U15C U39C A79G U96A U108A showed a self-cleavage of 0.2. U15C C37U A77U U96A showed a self-cleavage of 0.03. For U15C A43G A77C, the self-cleavage was 1.21. In the case of U15C G88A U100A C111U A124G A142G, the self-cleavage is reported as 0.04. For U14C U81C U96A A136G, the self-cleavage was 0.27. Work on U15A U134C A140U yielded a self-cleavage of 0.91. With U15A U20C A138G the self-cleavage was 2.26. Work on U14C U73A G86U yielded a self-cleavage of 0.06. Work on U15A U52C A59G C71U yielded a self-cleavage of 0.03. With U14C U85C A136G A140G the self-cleavage was 0.34. Work on U14C U85C U96A A129G yielded a self-cleavage of 0.12. Work on U15C G33U A77G U102C yielded a self-cleavage of 2.19. For U15C U52A G139U, the self-cleavage was 1.3. U15C U23C U109A U130C A140G showed a self-cleavage of 1.53. In the case of U15C A30C U73A, the self-cleavage is reported as 1.21. U15C G36U A64G U73C A77G U134C showed a self-cleavage of 0.66. U15C U45C A78G A92G showed a self-cleavage of 0.4. U15A C84U U91C A142G showed a self-cleavage of 0.19. In the case of U15C U45C A59G, the self-cleavage is reported as 0.18. U15C U20A A64U showed a self-cleavage of 0.63. U15C C68A U73C U130C showed a self-cleavage of 0.1. Variant U15C U73C G88A U96C has a self-cleavage of 0.2. Work on U14G A65G U87A yielded a self-cleavage of 0. In the case of U15C U62C G72A G93U U109C, the self-cleavage is reported as 0.03. For U15A U100A U130C A142G, the self-cleavage was 0.71.
